PubChem BioAssay AID504832 (National Center for Advancing Translational Sciences (NCATS), 2011)
In all, about 310,000 compounds went through this assay and about 18,000 (5.8%) were called active. The inconclusive results got no clear call from the source; some entries with a clear call stand among them for comparison. Calls follow the shape of the dose curve; as a rule, active = well fitted inhibition curve with a large enough effect; inconclusive = small, poorly fitted or top-dose-only effect, or another doubt; inactive = no such curve, though single readings can be large or run the other way. Potencies of inconclusive entries are left out as doubtful fits.

Test: Primary qHTS for delayed death inhibitors of the malarial parasite plastid, 48 hour incubation
Conditions: P. falciparum luciferase growth in erythrocytes; series mostly up to 28.7 µM
How it was run: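 Here the parasites carry a stable luciferase gene and grow inside erythrocytes in Albumax-based RPMI medium with compound for one erythrocytic cycle. Activity is scored as loss of luminescent signal.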
Potency is read from the fitted curve at half-maximal effect; tags tell the direction and shape of the fitted curve.

Row | SMILES | Potency
1 | CCn1c(SCC(=O)c2c(N)n(C3CC3)c(=O)[nH]c2=O)nc2cc(S(N)(=O)=O)ccc21 | inconclusive [inhibitor, single point]
2 | CCOc1ccc(OCCNC(=O)c2oc3ccccc3c2COC)cc1 | inconclusive [inhibitor, single point]
3 | CCN1CCN(CCOc2cccc(Oc3ccccc3)c2)CC1 | inactive
4 | Cc1ccc2cc3cc(C(=O)N4CCCCCC4)oc3nc2c1 | inconclusive [inhibitor, single point]
5 | O=C1c2ccccc2C(=O)N1CCCC[C@]12Cc3ccccc3C(O1)c1c(c3ccccc3oc1=O)O2 | inconclusive [inhibitor, full curve]
6 | Clc1nssc1=Nc1ccccc1 | inactive
7 | Cc1ccccc1NC(=O)Cc1nc(COC(=O)c2ccc([N+](=O)[O-])cc2)cs1 | inactive
8 | COc1ccc(C(=O)/C(=C/N(C)C)S(=O)(=O)c2ccccc2)cc1 | inactive
9 | Cc1ccnc(SCC(=O)n2c3c(c4ccccc42)CC(C)CC3)n1 (centres undefined) | inactive
10 | COc1ccccc1N1CCN(C(=O)C2CCN(S(=O)(=O)c3ccc4c(c3)CC(C)N4C(C)=O)CC2)CC1 (centres undefined) | active: 11.7 µM
11 | Cc1ccc(-n2c(C)nnc2SCC(=O)N(C)C2CCS(=O)(=O)C2)cc1 (centres undefined) | inconclusive [inhibitor, single point]
12 | CC(=O)c1c(C)[nH]c(C(=O)CSc2nnc(NC3CC3)s2)c1C | inconclusive [inhibitor, single point]
13 | CC(C)OC(=O)CC(=O)CSc1nc2c(cc1C#N)CCCCC2 | inactive
14 | COc1ccc2[nH]c(=O)c(CN(Cc3cccs3)C(=S)Nc3ccccc3)cc2c1 | inconclusive [inhibitor, single point]
15 | CN(CC(=O)Nc1ccc(F)cc1)C(=O)C1CCN(S(=O)(=O)c2ccc3c(c2)OCCO3)CC1 | inconclusive [inhibitor, partial curve]
16 | CC(C)C[C@H](NC(=O)C1CCN(S(=O)(=O)c2ccccc2)CC1)C(=O)NCc1ccccn1 | inactive
17 | CC12CCC(C/C1=N/O)C2(C)C (centres undefined) | inconclusive [inhibitor, full curve, poor fit]
18 | CC(C(=O)Nc1nccs1)c1ccc([N+](=O)[O-])cc1 (centres undefined) | inconclusive [inhibitor, single point]
19 | CC(C)c1ccc([N+](=O)[O-])cc1S(=O)(=O)N1CCN(C)CC1 | inconclusive [inhibitor, single point]
20 | CCOc1ccc(-c2nc(-c3cccnc3)no2)cc1OCC | inconclusive [inhibitor, single point]
21 | COC(=O)c1cc(Br)ccc1OC(=O)c1cccnc1 | inactive
22 | COc1ccc(/C=N/n2c(C)nc3ccccc3c2=O)cc1OC | inactive
23 | O=C(CSCc1ccccc1)Nc1nccs1 | inactive
24 | Cc1ccc(C(=O)N/C(=C\c2ccc(-c3cc(Cl)ccc3Cl)o2)C(=O)NCc2cccnc2)cc1 | inactive
25 | CC(=O)NN1C(=O)c2ccc3c4c(ccc(c24)C1=O)C(=O)N(NC(C)=O)C3=O | inconclusive [inhibitor, full curve]

Row | SMILES | Potency
26 | CCN1CCN(c2ccc(S(=O)(=O)N3CCCCC3)cc2NC(=O)c2cccc(C)c2)CC1 | active: 11.7 µM
27 | Cc1ccc(S(=O)(=O)/N=C(/Nc2ccc(F)cc2F)c2ccccc2)cc1 | inactive
28 | CCc1c(C(C)O)oc2ccc3c(C)cc(=O)oc3c12 (centres undefined) | inconclusive [inhibitor, single point]
29 | CSc1ccccc1C(=O)N(C)C(c1ccccc1)c1ccccc1 | inconclusive [inhibitor, partial curve]
30 | O=C(NCCN1CCCC1)c1ccc(Cn2c(=S)[nH]c3cc4c(cc3c2=O)OCO4)cc1 | inconclusive [inhibitor, partial curve, poor fit]
31 | Cc1cc(F)ccc1Oc1cc(NN2CCCCC2)c([N+](=O)[O-])cc1[N+](=O)[O-] | inactive
32 | CC(C)(C)C(=O)NC(c1ccccc1)c1c(O)ccc2ccccc12 (centres undefined) | active: 4.65 µM
33 | CCc1ccccc1NC(=O)CNC(=O)c1cc(C2CC2)nn1-c1ccccc1 | inconclusive [inhibitor, single point]
34 | CCOC(=O)C1CCCN(S(=O)(=O)c2c(C)noc2C)C1 (centres undefined) | inactive
35 | Cc1nn(CC(=O)N2CCN(c3ccccc3)CC2)c(=O)c2ccccc12 | inactive
36 | Cc1ccc(S(=O)(=O)N2CCN(C(=O)CCOc3ccccc3C)CC2)cc1C | inconclusive [inhibitor, partial curve, poor fit]
37 | COc1ccc(C(=O)COC(=O)CCNS(=O)(=O)c2ccccc2)cc1Br | inactive
38 | OCCSc1nc(N2CCOCC2)nc(N2CCOCC2)n1 | inactive
39 | COc1ccc(N2C(=NC(=O)c3ccc(Br)cc3)SC3CS(=O)(=O)CC32)cc1 (centres undefined) | inactive
40 | Cc1ccc(C(=O)NCc2nnc(SCC(=O)NC(C)c3ccccc3)n2C)cc1 (centres undefined) | inactive
41 | C=CCNC(=O)c1onc(CSc2cc(C)ccc2C)c1C(=O)O | inactive
42 | CC1Oc2ccccc2N(Cc2ccccc2Cl)C1=O (centres undefined) | inconclusive [inhibitor, single point]
43 | COc1ccc(OC)c2sc(N(CCN(C)C)C(=O)c3ccc4ccccc4c3)nc12 | inconclusive [inhibitor, single point]
44 | O=C(COC(=O)C12CC3CC(CC(C3)C1)C2)Nc1ccc([N+](=O)[O-])cc1Cl | inconclusive [inhibitor, single point]
45 | CC(=O)Nc1ccc(C(=O)N/N=C/c2ccncc2)cc1 | inactive
46 | Cc1ccc(-c2nn(-c3ccc(F)cc3)cc2C(=O)NCC(c2cccs2)N2CCOCC2)cc1 (centres undefined) | active: 10.4 µM
47 | CN(C(=O)c1ccccc1C(=O)OCC(=O)c1ccc(Br)cc1)c1ccccc1 | inconclusive [inhibitor, partial curve]
48 | Clc1ccc(OCc2nnc3n2N=C(c2ccc4c(c2)OCCO4)CS3)c(Cl)c1 | inconclusive [inhibitor, single point]
49 | Cc1cc(C)c(C(=O)N(CCN(C)C)CC2CCCN(Cc3ccccc3F)C2)o1 (centres undefined) | active: 11.7 µM
50 | CCOC(=O)c1nnn(CC(=O)N2N=C(c3cccc4ccccc34)CC2c2ccccc2)c1C(=O)OCC (centres undefined) | active: 9.28 µM

Row | SMILES | Potency
51 | CCCC(NCC(=O)Nc1ccccc1C(=O)NC1CC1)c1ccccc1 (centres undefined) | inconclusive [inhibitor, single point]
52 | Cn1cc(C=C(C#N)C#N)c2ccccc21 | inconclusive [inhibitor, single point]
53 | CCN(CC)CP(=O)(c1ccccc1)c1ccccc1 | inactive
54 | COc1ccc(-c2cc(C(F)(F)F)nc(N3CCN(C)CC3)n2)cc1 | active: 13.1 µM
55 | COc1ccc(-c2cc(C)no2)cc1S(=O)(=O)Nc1ccccc1 | inconclusive [inhibitor, partial curve, poor fit]
56 | COc1ccc(/C(C)=N\NC(=O)CNC(=O)C(c2ccccc2)c2ccccc2)cc1OC | inconclusive [inhibitor, partial curve, poor fit]
57 | CCCC1=Nc2cc(C(=O)NCc3ccco3)ccc2Sc2ccccc21 | active: 4.65 µM
58 | CC1CCc2cc(F)ccc2N1C(=O)c1cc2nc(-c3ccco3)cc(C(F)(F)F)n2n1 (centres undefined) | inconclusive [inhibitor, single point]
59 | CCOC(=O)C1(CC2CC2)CCN(Cc2ccc3cccc(F)c3n2)CC1 | inconclusive [inhibitor, single point]
60 | CCCN(CC(=O)Nc1ccccc1C)C(=O)COc1ccc2c(c1)CCC2 | inconclusive [inhibitor, single point]
61 | C=CCN(Cc1nc(-c2ccc(OC)c(OC)c2)oc1C)C1CCS(=O)(=O)C1 (centres undefined) | inactive
62 | Cc1ccccc1N1CCN(C2CCCN(C(=O)CCC(=O)N(C)C)C2)CC1 (centres undefined) | inconclusive [inhibitor, partial curve, poor fit]
63 | Cc1ccc(C)c(-n2cc(CNCCCn3cccn3)c(-c3ccccc3)n2)c1 | inconclusive [inhibitor, single point]
64 | CC1=C(C)C(=O)C(C(CCCCCC(=O)O)c2ccccc2)=C(C)C1=O (centres undefined) | inconclusive [inhibitor, partial curve, poor fit]
65 | O=C(NCCN1CCN(c2cccc(Cl)c2)CC1)c1ccc(CSc2nc3ccncc3[nH]2)cc1 | active: 1.65 µM
66 | Cc1ccccc1NCC(=O)Nc1cc(S(=O)(=O)N2CCCCC2)ccc1C | inconclusive [inhibitor, partial curve]
67 | COC(=O)C1=C(C)n2nnnc2NC1c1cc2ccccc2o1 (centres undefined) | inconclusive [inhibitor, single point]
68 | O=C(NCc1ccccn1)C(=O)NCC1OCCN1S(=O)(=O)c1ccc(Cl)cc1 (centres undefined) | inactive
69 | O=C(NC1CCN(C(=O)NC2CCCCC2)CC1)c1ccco1 | inactive
70 | CCC(C(=O)Nc1cccc(S(=O)(=O)N(C)c2ccccc2)c1)c1ccccc1 (centres undefined) | active: 9.28 µM
71 | CCOc1ccc(CCNC(=O)CSCC(=O)Nc2cccc(C)c2)cc1OCC | inconclusive [inhibitor, single point]
72 | O=C(NCCN1CCCCC1)Nc1ccc(F)cc1F | inactive
73 | CCCCn1c(N)c(N(CCC(C)C)C(=O)CN2C(=O)C3CCCCC3C2=O)c(=O)[nH]c1=O (centres undefined) | inactive
74 | Cc1cc(OCC(=O)NC2CCN(Cc3ccccc3)CC2)c2c(C)cc(=O)oc2c1 | inconclusive [inhibitor, single point]
